Data taken from US20140105889A1.
Each block holds one binder with its values, some of them ahead of it.

How the values were obtained:
[1] = molecular target: human FcγRIIIa(F) (human) (UniProt P08637); test: SPR (Biacore), antibody captured, FcγR as analyte
human FcγRIIb (human) = human FcγRIIb (human) (UniProt P31994); test: SPR (Biacore), captured antibody, FcγR analyte; bound amount per captured amount vs GpH7-B3/GpL16-k0 x100
human FcγRIIa(R) (human) = human FcγRIIa(R) (human) (UniProt P12318); test: Biacore, captured antibody, FcγR analyte
[2] = molecular target: human FcγRIIIa(F) (human) (UniProt P08637); test: Biacore, captured antibody, FcγR analyte
[3] = molecular target: human FcγRIIIa(F) (human) (UniProt P08637); test: SPR (Biacore), captured antibody, FcγR analyte; bound amount relative to GpH7-B3/GpL16-k0 x100
[4] = molecular target: human FcγRIIIa(F) (human) (UniProt P08637); test: SPR (Biacore), captured antibody, FcγR analyte; bound amount per captured amount vs GpH7-B3/GpL16-k0 x100
human FcγRIIa(H) (human) = human FcγRIIa(H) (human) (UniProt P12318); test: SPR (Biacore), captured antibody, FcγR analyte; bound/captured amount vs control x100

Sequence of UniProt P08637 (P08637 other isoform, or with tags, fused parts or gaps limits assumed): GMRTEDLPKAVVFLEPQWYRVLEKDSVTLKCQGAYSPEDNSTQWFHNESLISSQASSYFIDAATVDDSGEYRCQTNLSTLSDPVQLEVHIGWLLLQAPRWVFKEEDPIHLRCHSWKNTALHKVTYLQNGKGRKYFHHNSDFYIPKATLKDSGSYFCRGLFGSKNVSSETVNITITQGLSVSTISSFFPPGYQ
Sequence of UniProt P31994 (P31994 43-217 limits assumed): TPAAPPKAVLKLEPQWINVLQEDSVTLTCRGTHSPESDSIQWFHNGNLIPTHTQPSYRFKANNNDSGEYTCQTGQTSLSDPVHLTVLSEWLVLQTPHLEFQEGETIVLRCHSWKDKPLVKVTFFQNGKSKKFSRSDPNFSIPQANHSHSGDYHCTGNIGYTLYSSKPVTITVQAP

- relative binding activity (amount bound / amount bound by GpH7-B3/GpL16-k0 x100) (% of GpH7-B3/GpL16-k0) [1]: 9
B1: GpH7-B3 D270Y / GpL16-k0 (antibody, human IgG1)
heavy: QVQLVQSGAEVKKPGASVTVSCKASGYTFTDYEMHWIRQPPGEGLEWIGAIDPKTGDTAYSESFQDRVTLTADKSTSTAYMELSSLTSEDTAVYYCTRFYSYTYWGQGTLVTVSS[here human IgG1 constant region with D270Y K439E (EU numbers) without letters]
light: DIVMTQSPLSLPVTPGEPASISCQASESLVHSNRNTYLHWYLQKPGQSPQLLIYKVSNRFSGVPDRFSGSGSGTDFTLKISRVEAEDVGVYYCSQNTHVPPTFGQGTKVEIE

- relative binding activity (% of GpH7-B3/GpL16-k0) (human FcγRIIb (human)): 9
B2: GpH7-B3 E269I/GpL16-k0 (antibody, human IgG1)
heavy: QVQLVQSGAEVKKPGASVTVSCKASGYTFTDYEMHWIRQPPGEGLEWIGAIDPKTGDTAYSESFQDRVTLTADKSTSTAYMELSSLTSEDTAVYYCTRFYSYTYWGQGTLVTVSS[here human IgG1 constant region with E269I K439E (EU numbers) without letters]
light: DIVMTQSPLSLPVTPGEPASISCQASESLVHSNRNTYLHWYLQKPGQSPQLLIYKVSNRFSGVPDRFSGSGSGTDFTLKISRVEAEDVGVYYCSQNTHVPPTFGQGTKVEIE

- relative binding activity (% of GpH7-B3/GpL16-k0) (human FcγRIIa(R) (human)): 9
B3: GpH7-B3 L234G/GpL16-k0 (antibody, human IgG1)
heavy: QVQLVQSGAEVKKPGASVTVSCKASGYTFTDYEMHWIRQPPGEGLEWIGAIDPKTGDTAYSESFQDRVTLTADKSTSTAYMELSSLTSEDTAVYYCTRFYSYTYWGQGTLVTVSS[here human IgG1 constant region with L234G K439E (EU numbers) without letters]
light: DIVMTQSPLSLPVTPGEPASISCQASESLVHSNRNTYLHWYLQKPGQSPQLLIYKVSNRFSGVPDRFSGSGSGTDFTLKISRVEAEDVGVYYCSQNTHVPPTFGQGTKVEIE

- relative binding activity (% of GpH7-B3/GpL16-k0) [2]: 9
B4: GpH7-B3 G236M/GpL16-k0 (antibody, human IgG1)
heavy: QVQLVQSGAEVKKPGASVTVSCKASGYTFTDYEMHWIRQPPGEGLEWIGAIDPKTGDTAYSESFQDRVTLTADKSTSTAYMELSSLTSEDTAVYYCTRFYSYTYWGQGTLVTVSS[here human IgG1 constant region with G236M K439E (EU numbers) without letters]
light: DIVMTQSPLSLPVTPGEPASISCQASESLVHSNRNTYLHWYLQKPGQSPQLLIYKVSNRFSGVPDRFSGSGSGTDFTLKISRVEAEDVGVYYCSQNTHVPPTFGQGTKVEIE

- relative binding activity (% of GpH7-B3/GpL16-k0) [3]: 8
B5: GpH7-B3/GpL16-k0 with A327I introduced into GpH7-B3 (antibody, human IgG1)
heavy: QVQLVQSGAEVKKPGASVTVSCKASGYTFTDYEMHWIRQPPGEGLEWIGAIDPKTGDTAYSESFQDRVTLTADKSTSTAYMELSSLTSEDTAVYYCTRFYSYTYWGQGTLVTVSS[here human IgG1 constant region with A327I K439E (EU numbers) without letters]
light: DIVMTQSPLSLPVTPGEPASISCQASESLVHSNRNTYLHWYLQKPGQSPQLLIYKVSNRFSGVPDRFSGSGSGTDFTLKISRVEAEDVGVYYCSQNTHVPPTFGQGTKVEIE

- relative binding activity (% of GpH7-B3/GpL16-k0) [2]: 8
B6: GpH7-B3 G236Q/GpL16-k0 (antibody, human IgG1)
heavy: QVQLVQSGAEVKKPGASVTVSCKASGYTFTDYEMHWIRQPPGEGLEWIGAIDPKTGDTAYSESFQDRVTLTADKSTSTAYMELSSLTSEDTAVYYCTRFYSYTYWGQGTLVTVSS[here human IgG1 constant region with G236Q K439E (EU numbers) without letters]
light: DIVMTQSPLSLPVTPGEPASISCQASESLVHSNRNTYLHWYLQKPGQSPQLLIYKVSNRFSGVPDRFSGSGSGTDFTLKISRVEAEDVGVYYCSQNTHVPPTFGQGTKVEIE

- relative binding activity (% of GpH7-B3/GpL16-k0) [4]: 9
B7: GpH7-B3 E269W/GpL16-k0 (antibody, human IgG1)
heavy: QVQLVQSGAEVKKPGASVTVSCKASGYTFTDYEMHWIRQPPGEGLEWIGAIDPKTGDTAYSESFQDRVTLTADKSTSTAYMELSSLTSEDTAVYYCTRFYSYTYWGQGTLVTVSS[here human IgG1 constant region with E269W K439E (EU numbers) without letters]
light: DIVMTQSPLSLPVTPGEPASISCQASESLVHSNRNTYLHWYLQKPGQSPQLLIYKVSNRFSGVPDRFSGSGSGTDFTLKISRVEAEDVGVYYCSQNTHVPPTFGQGTKVEIE

- relative binding activity (% of GpH7-B3/GpL16-k0) (human FcγRIIa(H) (human)): 9
B8: GpH7-B3 S239W/GpL16-k0 (antibody, human IgG1)
heavy: QVQLVQSGAEVKKPGASVTVSCKASGYTFTDYEMHWIRQPPGEGLEWIGAIDPKTGDTAYSESFQDRVTLTADKSTSTAYMELSSLTSEDTAVYYCTRFYSYTYWGQGTLVTVSS[here human IgG1 constant region with S239W K439E (EU numbers) without letters]
light: DIVMTQSPLSLPVTPGEPASISCQASESLVHSNRNTYLHWYLQKPGQSPQLLIYKVSNRFSGVPDRFSGSGSGTDFTLKISRVEAEDVGVYYCSQNTHVPPTFGQGTKVEIE

- relative binding activity (% of GpH7-B3/GpL16-k0) [2]: 8
B9: GpH7-B3 G236N/GpL16-k0 (antibody, human IgG1)
heavy: QVQLVQSGAEVKKPGASVTVSCKASGYTFTDYEMHWIRQPPGEGLEWIGAIDPKTGDTAYSESFQDRVTLTADKSTSTAYMELSSLTSEDTAVYYCTRFYSYTYWGQGTLVTVSS[here human IgG1 constant region with G236N K439E (EU numbers) without letters]
light: DIVMTQSPLSLPVTPGEPASISCQASESLVHSNRNTYLHWYLQKPGQSPQLLIYKVSNRFSGVPDRFSGSGSGTDFTLKISRVEAEDVGVYYCSQNTHVPPTFGQGTKVEIE

- relative binding activity (% of GpH7-B3/GpL16-k0) [2]: 9
B10: GpH7-B3 L235R/GpL16-k0 (antibody, human IgG1)
heavy: QVQLVQSGAEVKKPGASVTVSCKASGYTFTDYEMHWIRQPPGEGLEWIGAIDPKTGDTAYSESFQDRVTLTADKSTSTAYMELSSLTSEDTAVYYCTRFYSYTYWGQGTLVTVSS[here human IgG1 constant region with L235R K439E (EU numbers) without letters]
light: DIVMTQSPLSLPVTPGEPASISCQASESLVHSNRNTYLHWYLQKPGQSPQLLIYKVSNRFSGVPDRFSGSGSGTDFTLKISRVEAEDVGVYYCSQNTHVPPTFGQGTKVEIE

- relative binding activity (% of GpH7-B3/GpL16-k0) (human FcγRIIa(H) (human)): 9
B11: GpH7-B3 G237A/GpL16-k0 (antibody, human IgG1)
heavy: QVQLVQSGAEVKKPGASVTVSCKASGYTFTDYEMHWIRQPPGEGLEWIGAIDPKTGDTAYSESFQDRVTLTADKSTSTAYMELSSLTSEDTAVYYCTRFYSYTYWGQGTLVTVSS[here human IgG1 constant region with G237A K439E (EU numbers) without letters]
light: DIVMTQSPLSLPVTPGEPASISCQASESLVHSNRNTYLHWYLQKPGQSPQLLIYKVSNRFSGVPDRFSGSGSGTDFTLKISRVEAEDVGVYYCSQNTHVPPTFGQGTKVEIE

- relative binding activity (% of GpH7-B3/GpL16-k0) [4]: 7
B12: GpH7-B3 E269R/GpL16-k0 (antibody, human IgG1)
heavy: QVQLVQSGAEVKKPGASVTVSCKASGYTFTDYEMHWIRQPPGEGLEWIGAIDPKTGDTAYSESFQDRVTLTADKSTSTAYMELSSLTSEDTAVYYCTRFYSYTYWGQGTLVTVSS[here human IgG1 constant region with E269R K439E (EU numbers) without letters]
light: DIVMTQSPLSLPVTPGEPASISCQASESLVHSNRNTYLHWYLQKPGQSPQLLIYKVSNRFSGVPDRFSGSGSGTDFTLKISRVEAEDVGVYYCSQNTHVPPTFGQGTKVEIE

- relative binding activity (% of GpH7-B3/GpL16-k0) (human FcγRIIb (human)): 8
B13: GpH7-B3 E269H/GpL16-k0 (antibody, human IgG1)
heavy: QVQLVQSGAEVKKPGASVTVSCKASGYTFTDYEMHWIRQPPGEGLEWIGAIDPKTGDTAYSESFQDRVTLTADKSTSTAYMELSSLTSEDTAVYYCTRFYSYTYWGQGTLVTVSS[here human IgG1 constant region with E269H K439E (EU numbers) without letters]
light: DIVMTQSPLSLPVTPGEPASISCQASESLVHSNRNTYLHWYLQKPGQSPQLLIYKVSNRFSGVPDRFSGSGSGTDFTLKISRVEAEDVGVYYCSQNTHVPPTFGQGTKVEIE

- relative binding activity (amount bound / amount bound by GpH7-B3/GpL16-k0 x100) (% of GpH7-B3/GpL16-k0) [1]: 9
B14: GpH7-B3 D270T / GpL16-k0 (antibody, human IgG1)
heavy: QVQLVQSGAEVKKPGASVTVSCKASGYTFTDYEMHWIRQPPGEGLEWIGAIDPKTGDTAYSESFQDRVTLTADKSTSTAYMELSSLTSEDTAVYYCTRFYSYTYWGQGTLVTVSS[here human IgG1 constant region with D270T K439E (EU numbers) without letters]
light: DIVMTQSPLSLPVTPGEPASISCQASESLVHSNRNTYLHWYLQKPGQSPQLLIYKVSNRFSGVPDRFSGSGSGTDFTLKISRVEAEDVGVYYCSQNTHVPPTFGQGTKVEIE

- relative binding activity (amount bound / amount bound by GpH7-B3/GpL16-k0 x100) (% of GpH7-B3/GpL16-k0) [1]: 8
B15: GpH7-B3 Y296P / GpL16-k0 (antibody, human IgG1)
heavy: QVQLVQSGAEVKKPGASVTVSCKASGYTFTDYEMHWIRQPPGEGLEWIGAIDPKTGDTAYSESFQDRVTLTADKSTSTAYMELSSLTSEDTAVYYCTRFYSYTYWGQGTLVTVSS[here human IgG1 constant region with Y296P K439E (EU numbers) without letters]
light: DIVMTQSPLSLPVTPGEPASISCQASESLVHSNRNTYLHWYLQKPGQSPQLLIYKVSNRFSGVPDRFSGSGSGTDFTLKISRVEAEDVGVYYCSQNTHVPPTFGQGTKVEIE

- relative binding activity (% of GpH7-B3/GpL16-k0) (human FcγRIIa(R) (human)): 9
B16: GpH7-B3 G236K/GpL16-k0 (antibody, human IgG1)
heavy: QVQLVQSGAEVKKPGASVTVSCKASGYTFTDYEMHWIRQPPGEGLEWIGAIDPKTGDTAYSESFQDRVTLTADKSTSTAYMELSSLTSEDTAVYYCTRFYSYTYWGQGTLVTVSS[here human IgG1 constant region with G236K K439E (EU numbers) without letters]
light: DIVMTQSPLSLPVTPGEPASISCQASESLVHSNRNTYLHWYLQKPGQSPQLLIYKVSNRFSGVPDRFSGSGSGTDFTLKISRVEAEDVGVYYCSQNTHVPPTFGQGTKVEIE
